# From US20210163599A1 (AVACTA LIFE SCIENCES, published 2021)
# B1: AVA04-251 AZ (Fc fusion)
# chain: IPRGLSEAKPATPEIQEIVDKVKPQLEEKTGETYGKLEAVQYKTQVLAREGRQDWVLSTNYYIKVRAGDNKYMHLKVFNGPWVPFPHQQLADRVLTGYQVDKNKDDELTGFAAA[human IgG1 Fc skipped]
# notes: Affimer fused to the Fc hinge by AAA only
# B2: AVA04-251 AG.3 (Fc fusion)
# chain: IPRGLSEAKPATPEIQEIVDKVKPQLEEKTGETYGKLEAVQYKTQVLAREGRQDWVLSTNYYIKVRAGDNKYMHLKVFNGPWVPFPHQQLADRVLTGYQVDKNKDDELTGFAAAGGGGSGGGGSGGGGSIPRGLSEAKPATPEIQEIVDKVKPQLEEKTGETYGKLEAVQYKTQVLAREGRQDWVLSTNYYIKVRAGDNKYMHLKVFNGPWVPFPHQQLADRVLTGYQVDKNKDDELTGFLQAAAAAAGGGGSGGGGSGGGGSGGGGS[human IgG1 Fc skipped]
# notes: Two Affimers in line at the N-terminus of human IgG1 Fc; four Affimers in the Fc dimer
# B3: AVA04-251 BS (Fc fusion)
# chain: IPRGLSEAKPATPEIQEIVDKVKPQLEEKTGETYGKLEAVQYKTQVLAREGRQDWVLSTNYYIKVRAGDNKYMHLKVFNGPWVPFPHQQLADRVLTGYQVDKNKDDELTGF[human IgG1 Fc skipped]IPRGLSEAKPATPEIQEIVDKVKPQLEEKTGETYGKLEAVQYKTQVLAREGRQDWVLSTNYYIKVRAGDNKYMHLKVFNGPWVPFPHQQLADRVLTGYQVDKNKDDELTGF
# notes: Affimer - human IgG1 Fc - Affimer; four Affimers in the Fc dimer
# Target: T1, huPD-L1-Fc (R&D Systems) (human, UniProt Q9NZQ7 partial chain)
# T1 construct: Bought from R&D Systems; also called hPDL1-Fc; human PD-L1 Fc antigen
# Assay: Biacore single cycle kinetics, 1:1 binding model
# T1 sequence (Q9NZQ7 19-239 limits assumed): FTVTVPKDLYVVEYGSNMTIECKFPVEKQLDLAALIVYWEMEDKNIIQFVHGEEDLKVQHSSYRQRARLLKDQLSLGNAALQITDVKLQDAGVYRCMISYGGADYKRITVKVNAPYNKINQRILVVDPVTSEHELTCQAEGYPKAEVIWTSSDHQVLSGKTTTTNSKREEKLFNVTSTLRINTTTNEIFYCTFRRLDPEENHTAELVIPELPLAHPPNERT
row,Kd [nM],Binder
1,0.0315,B1
2,0.0362,B2
3,0.0257,B3
